# Test results as given in PubChem BioAssay AID624418 (National Center for Advancing Translational Sciences (NCATS), 2012).
# In all, about 410,000 compounds went through this assay and about 530 (0.13%) were called active. The inconclusive results got no clear call from the source; some entries with a clear call stand among them for comparison. The call rests on the fitted dose curve; in most records, active means well fitted inhibition curve with a large enough effect; inconclusive means small, poorly fitted or top-dose-only effect, or another doubt; inactive means no such curve, though single readings can be large or run the other way. Potencies of inconclusive entries are doubtful fits and often do not repeat.
# Assay: qHTS of GLP-1 Receptor Inverse Agonists: Cytotox Screen
# Conditions: HEK293 cAMP-luciferase reporter cells, luminescence, 24 h; activity change, negative = inhibition: at 38.3 µM (top of the series) unless noted
# Outline: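 Cells in DMEM/10% Nu serum/1% pen-strep, 1536-well format. Pre-incubated 12 h, dosed with 23 nL compound, incubated a further 24 h. Luciferase detection, 12 min at room temp, luminescence.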
# On the % scale 0 is the no-effect control and ±100 the full control effect; potency means the concentration at half of the fitted maximal effect.
Compound,"activity change, negative = inhibition",Potency
CC(=O)c1sc(NC(=O)CS(=O)(=O)c2ccc(F)cc2)nc1C,inactive: 18.1%,
CCC(=O)c1ccc(OCC(O)CNCCc2ccc(Cl)cc2)cc1 (centres undefined),,"inconclusive: 14.1 µM [inhibitor, single point]"
Cc1cccc(N2CCN(C(=O)c3cccs3)CC2)c1C,inactive: 6.57%,
CC1CCCN(c2cc(N(C)CCO)c([N+](=O)[O-])c3nonc23)C1 (centres undefined),,"inconclusive: 5.62 µM [inhibitor, full curve, poor fit]"
CCOC(=O)/C=C/C(=O)Nc1cccc([N+](=O)[O-])c1,,"inconclusive: 28.2 µM [inhibitor, single point]"
CC(=O)c1sc(NC(=O)CCS(=O)(=O)c2ccc(C)cc2)nc1C,,active: 10 µM
COc1ccc([C@H]2CC(=O)C=C(c3ccc(C)cc3)C2)cc1OC,,"inconclusive: 5.62 µM [inhibitor, partial curve]"
CC1=CC(=Nc2c(C)n(C)n(-c3ccccc3)c2=O)C=C(C)C1=O,,"inconclusive: 31.6 µM [inhibitor, partial curve, poor fit]"
Cc1[nH]n2c(=O)cc(-c3ccc(Cl)cc3)nc2c1-c1ccccc1,inactive: 98.4%,
COc1ccc(CNC(=O)c2ccc3nc(CCc4ccccc4)oc3c2)cc1,inactive: 1.85%,
COc1ccccc1CNC(=O)C(C)n1ccc2cc(S(=O)(=O)N3CCCC3)ccc21 (centres undefined),inactive: 6.39%,
COc1cc(/C=C/C(=O)c2c(O)ccc3c(C)cc(=O)oc23)ccc1O,,"inconclusive: 8.91 µM [inhibitor, partial curve, poor fit]"
COC(=O)C1=C(C(=O)OC)[C@@H]2N(Cc3ccccc3)c3ccccc3[C@@]23C[C@@H](C(=O)OC)N(C(=O)c2cccs2)C3=N1,inactive: -22.2%,
C=CCOc1ccc(-c2n[nH]c(=S)o2)cc1,,"inconclusive: 0.501 µM [inhibitor, partial curve, poor fit]"
Cc1c(C(=O)N2CCCC2)oc2c1-c1nn(CC(=O)NCc3ccccc3Br)cc1CC2,inactive: -0.727%,
COc1cc(C2c3cc4c(cc3OC(Nc3ccc(C(=O)O)cc3)C2C)OCO4)cc(OC)c1OC (centres undefined),,"inconclusive: 0.891 µM [inhibitor, full curve, poor fit]"
CCCCCCSc1nnc(-c2cnn(-c3ccccc3)c2-n2cccc2)n1C,,"inconclusive: 28.2 µM [inhibitor, single point]"
CC1CCc2sc(NC(=S)NC(=O)c3ccccc3)c(C#N)c2C1 (centres undefined),,"inconclusive: 28.2 µM [inhibitor, single point]"
Cc1nc2ccccn2c1-c1csc(Nc2cccc(O)c2)n1,,"inconclusive: 28.2 µM [inhibitor, single point]"
CCOC(=O)C1(Cc2cccc(OC)c2)CCN(Cc2ccc(C)s2)CC1,,"inconclusive: 20 µM [inhibitor, single point]"
Cc1nc(Nc2ccncc2)c2oc3ccccc3c2n1,,"inconclusive: 12.6 µM [inhibitor, partial curve, poor fit]"
Cc1cc(C)n(-c2nc(N(C)C)nc(N3CCOCC3)n2)n1,,"inconclusive: 28.2 µM [inhibitor, single point]"
CC(C)n1c(NCc2nc3ccccc3n2C)nc2ccccc21,inactive: 3.78%,

Compound,"activity change, negative = inhibition",Potency
COc1cccc(-n2c(-c3ccccc3)c[nH]c2=S)c1,,"inconclusive: 11.2 µM [inhibitor, single point]"
Cc1ccc(S(=O)(=O)N2CCCCC2)cc1NC(=O)Cn1ccsc1=N,inactive: -4.78%,
CN(NS(=O)(=O)c1ccc(Br)cc1)c1nc(C(F)(F)F)nc2ccccc12,,"inconclusive: 31.6 µM [inhibitor, single point]"
O=[N+]([O-])c1ccc(N2CCN(CCO)CC2)cc1NCc1ccco1,,"inconclusive: 12.6 µM [inhibitor, single point]"
Cc1ccc(S(=O)(=O)N2CCC3(CC2)OCCO3)c(C)c1,,"inconclusive: 0.501 µM [inhibitor, full curve, poor fit]"
Cc1ccc(NC(=S)NCCc2c[nH]c3ccccc23)cc1,,"inconclusive: 12.6 µM [inhibitor, single point]"
c1ccc(-c2sc3ccccc3c2-c2ccc(OCCN3CCCCC3)cc2)cc1,,"inconclusive: 31.6 µM [inhibitor, single point]"
CCn1c(SCc2ccccc2C)nc(=O)c2c(C(=O)OC)cc(C3CC3)nc21,inactive: 4.36%,
CCCCOc1ccc(C(=O)NNC(=S)NC(=O)CC)cc1,,"inconclusive: 10 µM [inhibitor, partial curve]"
CCc1ccc(NS(=O)(=O)c2ccc3oc(=O)c4ncn(CC)c4c3c2)cc1,,"inconclusive: 15.8 µM [inhibitor, single point]"
COc1ccc(C(CCN(Cc2ccc(OC)c(OC)c2)C(=O)CCl)c2ccccc2)cc1 (centres undefined),,"inconclusive: 10 µM [inhibitor, partial curve, poor fit]"
CCCC(=O)Nc1ccc(-c2csc(N/N=C\c3ccncc3)n2)cc1,,"inconclusive: 10 µM [inhibitor, single point]"
Cc1ccc(N/C(=N/S(=O)(=O)c2cccs2)c2ccccc2)c(C)c1,,"inconclusive: 5.01 µM [inhibitor, full curve]"
CCOc1ccc(Nc2cc(Nc3ccccc3OCC)nc(C=C(C#N)C#N)n2)cc1,,"inconclusive: 0.501 µM [inhibitor, full curve, poor fit]"
COc1ccc(/C=N/c2c(-c3ccc(OC)cc3)nc3n2CCS3)cc1,,"inconclusive: 10 µM [inhibitor, partial curve, poor fit]"
C/C(=N\NC(=S)Nc1cccc(C)c1)c1cccc(N)c1,,"inconclusive: 5.62 µM [inhibitor, full curve, poor fit]"
Cc1nc2ccn(Cc3cccs3)c(=O)c2cc1C(=O)NCc1ccc(Br)cc1,,"inconclusive: 11.2 µM [inhibitor, single point]"
CCNc1ccc(C(=O)OCC)cc1NC(=O)c1cccc(N(C)C)c1,,"inconclusive: 1.78 µM [inhibitor, partial curve, poor fit]"
CC(=O)Nc1ccc(C(=O)N2CC(=O)NC(=O)C2)cc1,,"inconclusive: 28.2 µM [inhibitor, single point]"
COc1cc(/C=N/NC(=O)C(=O)N2CCCCCC2)ccc1O,inactive: 9.23%,
Cc1csc2nc(COC(=O)c3cccc(NC(=O)c4cccc(Cl)c4)c3)cc(=O)n12,inactive: -5.65%,
O=C(CCN1CCCCCC1)c1ccccc1,inactive: -5.16%,
C/C(N)=C(/C#N)C(=O)CSc1nc2ccccc2c(=O)n1Cc1ccc(C)cc1,,"inconclusive: 28.2 µM [inhibitor, single point]"

Compound,"activity change, negative = inhibition",Potency
Cc1cccc(-n2cc(CN3CCN(Cc4nccn4C)CC3)c(-c3cccc(F)c3)n2)c1,,"inconclusive: 14.1 µM [inhibitor, single point]"
CC1CC(C)CN(S(=O)(=O)N2CCCC(C(=O)NCc3ccccc3Cl)C2)C1 (centres undefined),inactive: 5.25%,
CC(C)(C)NC(=O)/C(=C/c1ccco1)c1ccccc1,inactive: -17.8%,
COc1ccc(C(=O)NC2CCCCCCC2)cc1OC,,"inconclusive: 14.1 µM [inhibitor, single point]"
CN(C)CCNC(=O)c1ccc(Cn2c(SCc3ccc(F)cc3)nc3cccnc32)cc1,inactive: -10.9%,
Oc1ccc(/C=N/NC(=S)NC2CC3CCC2C3)cc1 (centres undefined),,"inconclusive: 12.6 µM [inhibitor, partial curve, poor fit]"
COc1ccc(NC(=S)Nc2cc(C)ccn2)c(OC)c1,inactive: -5.92%,
CCOC(=O)c1c(NC(=O)CN2CCCCC2)sc2c1CCN(C(=O)OCC)C2,,"inconclusive: 10 µM [inhibitor, partial curve, poor fit]"
COC(=O)CSc1nc2sc3c(c2c(=O)n1-c1ccccc1)CCN(C)C3,inactive: 72.6%,
COCCn1c(=N)c(S(=O)(=O)c2ccc(F)cc2)cc2c(=O)n3ccccc3nc21,inactive: 155%,
COc1ccc(S(=O)(=O)c2c(Nc3c(C)cccc3C)sc(C(=O)c3ccc(F)cc3)c2N)cc1,,"inconclusive: 2 µM [inhibitor, full curve, poor fit]"
CCc1cccc(C)c1Nc1c(-c2ccc(SC)cc2)nc2sccn12,inactive: 1.14%,
COc1ccc(CC(=O)N2N=C(c3ccncc3)CC2(O)C(F)(F)F)cc1 (centres undefined),,"inconclusive: 17.8 µM [inhibitor, partial curve, poor fit]"
Cc1ccc(CN(Cc2ccco2)C(=O)c2ccc(Cl)cc2Cl)cc1,inactive: 8.33%,
CCOc1ccccc1N1CCN(C(=S)NC(=O)C23CC4CC(CC(C4)C2)C3)CC1,,"inconclusive: 12.6 µM [inhibitor, single point]"
COc1ccc2c(c1)CC/C2=N\OC(=O)c1cccc(C)c1,,"inconclusive: 28.2 µM [inhibitor, single point]"
COc1ccc(CCNC(=O)c2ccc3c(c2)N(Cc2ccc(F)cc2)CCS3)c(OC)c1,inactive: -2.91%,
COc1cccc(N=C2SC(C(=O)Nc3ccccc3F)CC(=O)N2C)c1 (centres undefined),,"inconclusive: 2 µM [inhibitor, partial curve, poor fit]"
Cc1cc(C(C)(C)C)oc1C(=O)N(CC(=O)NC1CCCC1)c1cccc(C(F)(F)F)c1,,"inconclusive: 22.4 µM [inhibitor, partial curve, poor fit]"
c1ccc(CN2CCN(c3nc(N4CCOCC4)c4ccccc4n3)CC2)cc1,inactive: 1.27%,
COc1ccc(OC)c(NC(=O)Cc2csc(NC(=O)Nc3ccccc3OC)n2)c1,,"inconclusive: 28.2 µM [inhibitor, single point]"
COc1cccc(/C=C2\SC(=S)N(CCCC(=O)N(CCO)c3ccccc3)C2=O)c1,inactive: -13.8%,
Cc1[nH]n(-c2ccccc2)c(=O)c1/C=N\NC(=O)C1COc2ccccc2O1 (centres undefined),,"inconclusive: 5.01 µM [inhibitor, full curve]"
